In the assay the target is T1, murine CD28 on the surface of primary mouse T cells (mouse, UniProt P31041 20-218).
T1 construct: whole, on cells
The experiment in a line: flow cytometry on primary mouse T cells, 50 nM antibody. A general note: Flow cytometry measures light scatter and fluorescence of single cells or particles in a stream.

T1 sequence (P31041 20-218): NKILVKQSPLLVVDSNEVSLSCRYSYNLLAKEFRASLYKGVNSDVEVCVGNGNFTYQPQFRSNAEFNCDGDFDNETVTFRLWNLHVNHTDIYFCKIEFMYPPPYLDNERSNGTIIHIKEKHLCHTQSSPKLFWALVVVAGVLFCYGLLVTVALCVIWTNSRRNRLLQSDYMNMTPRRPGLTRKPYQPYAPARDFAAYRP

B1: AE2P IgG/anti-human CEA (scFv)2 bispecific antibody in IgG-(scFv)2 (2+2) format, wherein the IgG is in IgG4 format (format 2, FIG. 13) (bispecific antibody)
heavy: [omitted - about 100 residues]RYIAFDYWGQGTLVTVSSASTKGPSVFPLAPCSRSTSESTAALGCLVKDYFPEPVTVSWNSGALTSGVHTFPAVLQSSGLYSLSSVVTVPSSSLGTKTYTCNVDHKPSNTKVDKRV[omitted - human IgG4 Fc with S228P (EU numbers)]GSEVQLLESGGGLVQPGGSLRLSCAASGFTFSRTAMSWVRQAPGKGLEWVSAIDYDGGVTYYADSVKGRFTISRDNSKNTLYLQMNSLRAEDTAVYYCAKLTYARFDYWGQGTLVTVSSGGGGSGGGGSGGGGSEIVLTQSPGTLSLSPGERATLSCRASQSVSQNHLAWYQQKPGQAPRLLIYLASRRHTGIPDRFSGSGSGTDFTLTISRLEPEDFAVYYCQQSGRVPWTFGQGTKVEIK
light: DIQMTQSPSSLSASVGDRVTITCRASQSISSYLNWYQQKPGKAPKLLIYAASSLQSGVPSRFSGSGSGTDFTLTISSLQPEDFATYYCQQGGMPPDTFGQGTKVEIKRTVAAPSVFIFPPSDEQLKSGTASVVCLLNNFYPREAKVQWKVDNALQSGNSQESVTEQDSKDSTYSLSSTLTLSKADYEKHKVYACEVTHQGLSSPVTKSFNRGEC
notes: AE2P is in IgG4 format, the anti-human CEA antibody in scFv format on the heavy chains; also called anti-CD28 IgG/anti-human CEA (scFv)2 bispecific antibody
For the molecule B1, the binding result was “binds”.

The values above are taken from patent US20250368738A1 (PHILOGEN S P A, published 2025).
